# Experimental data: PubChem BioAssay AID1460 (National Center for Advancing Translational Sciences (NCATS), 2008)
# Hit rate of the full screen: of about 270,000 compounds, about 5,800 (2.1%) were called active. This list was built around the results that the source calls inconclusive (neither active nor inactive); the mix of calls is not that of the screen. Calls follow the shape of the dose curve; as a rule, active = well fitted inhibition curve with a large enough effect; inconclusive = small, poorly fitted or top-dose-only effect; inactive = flat fitted curve, though single readings scatter. Potencies beside an inconclusive call are fits to weak or partial responses and may not hold up.
# Target: Microtubule-associated protein tau (Homo sapiens) (UniProt P10636)
# Chain of UniProt P10636 (P10636 whole entry, looked up): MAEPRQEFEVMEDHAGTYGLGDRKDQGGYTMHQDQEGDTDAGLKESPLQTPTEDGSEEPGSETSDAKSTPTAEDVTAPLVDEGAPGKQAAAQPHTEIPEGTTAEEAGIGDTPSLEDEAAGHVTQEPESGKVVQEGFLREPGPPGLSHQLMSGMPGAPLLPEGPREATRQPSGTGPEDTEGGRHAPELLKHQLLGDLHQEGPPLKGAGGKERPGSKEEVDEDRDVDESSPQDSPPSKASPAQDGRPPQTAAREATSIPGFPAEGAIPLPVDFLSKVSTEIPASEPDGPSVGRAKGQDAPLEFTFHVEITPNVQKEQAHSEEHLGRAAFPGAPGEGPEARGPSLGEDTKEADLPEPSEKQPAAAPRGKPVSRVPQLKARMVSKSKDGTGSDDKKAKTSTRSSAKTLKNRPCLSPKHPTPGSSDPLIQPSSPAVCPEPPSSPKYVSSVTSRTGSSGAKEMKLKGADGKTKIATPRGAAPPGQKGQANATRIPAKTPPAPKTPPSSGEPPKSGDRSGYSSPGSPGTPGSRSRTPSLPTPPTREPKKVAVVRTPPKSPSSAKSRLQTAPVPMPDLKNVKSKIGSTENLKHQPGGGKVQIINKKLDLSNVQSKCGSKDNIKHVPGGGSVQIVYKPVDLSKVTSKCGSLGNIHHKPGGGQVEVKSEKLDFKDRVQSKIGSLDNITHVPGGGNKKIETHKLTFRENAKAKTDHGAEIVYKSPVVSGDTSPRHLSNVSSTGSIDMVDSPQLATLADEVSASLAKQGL
# Experiment: qHTS for Inhibitors of Tau Fibril Formation, Thioflavin T Binding; also: nearly all actives have a fitted effect of over 55% in size
# Conditions: recombinant tau K18 P301L, heparin-induced fibrillization, ThT fluorescence; series mostly up to 57.4 µM; activity, negative = inhibition: at the top concentration
# Procedure, shortened: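 Fibril formation assay: tau K18 P301L at 15 uM with trace Alexa 594 label, heparin inducer 20 uM, pH 7 sodium acetate buffer, 37 C for 6 hr; endpoint ThT signal.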
# % is scaled to controls: 0 for no effect and ±100 for the full control effect; potency is read from the fitted curve at half-maximal effect; tags tell the direction and shape of the fitted curve.
Compound,Potency,"activity, negative = inhibition"
Nn1c(C2COc3ccccc3O2)n[nH]c1=S (stereo not given),"inconclusive: 35.5 µM [inhibitor, partial curve]",–
Cc1ccc(C(=O)C2CCN(C(=S)NCC3CCCO3)CC2)cc1 (stereo not given),–,inactive: 0.441%
CCOC(=O)c1cnn2c(C(F)(F)F)cc(-c3ccco3)nc12,"inconclusive: 12.6 µM [inhibitor, partial curve, poor fit]",–
O=C(CSc1ccc(Cl)cc1)NCC1CCCO1 (stereo not given),–,inactive: -5.35%
c1ccc(-c2cn3c(n2)CCc2ccc4cccnc4c2-3)cc1,"inconclusive: 17.8 µM [inhibitor, partial curve]",–
O=C(/C=C\Nc1ccc2c(c1)OCO2)c1ccc(Cl)s1,active: 2.82 µM,–
O=C(NCc1ccc2c(c1)OCO2)c1ccc(N2CCCCCC2)c([N+](=O)[O-])c1,"inconclusive: 5.01 µM [inhibitor, full curve]",–
Cc1ccc(C(=O)Nc2nnc(S(=O)(=O)N3CCOCC3)s2)cc1,"inconclusive: 15.8 µM [inhibitor, partial curve]",–
CCCNc1ncnc2c1cnn2-c1ccc(OC)cc1,"inconclusive: 39.8 µM [inhibitor, single point]",–
Cc1cc(C(=O)N/N=C/c2ccc(O)c([N+](=O)[O-])c2)c(C)n1-c1ccc(F)cc1,active: 14.1 µM,–
Cn1cc([N+](=O)[O-])c(C(=O)Nc2nc(-c3ccc(Cl)cc3)cs2)n1,"inconclusive: 14.1 µM [inhibitor, partial curve]",–
CCCOc1ccc(N2C(=O)CC(N(Cc3ccc(OC)cc3)C(=S)Nc3ccccc3)C2=O)cc1 (stereo not given),–,inactive: 4.31%
Cc1noc(C)c1-c1nnc(-c2ccc(C(F)(F)F)cc2)o1,–,inactive: -10.6%
CCCCCc1ccc(OCCCC[n+]2ccc(C)cc2)c(CCCCC)c1,"inconclusive: 22.4 µM [inhibitor, partial curve]",–
COc1ccccc1Nc1c2c(nc3ccc(NC(=O)/C=C/c4cccc(OC)c4OC)cc13)CCCC2,active: 14.1 µM,–
CC1S/C(=N/N=C/c2cccc([N+](=O)[O-])c2)NC1=O (stereo not given),–,inactive: -12.9%
COc1ccc(N=C/C=C2/C=C(c3ccccc3)OC(C)(C)O2)cc1,"inconclusive: 31.6 µM [inhibitor, single point]",–
CCN(CC)C(=O)c1ccc(COc2ccccc2Br)o1,"inconclusive: 31.6 µM [inhibitor, partial curve]",–
O=C(CCCN1CC=C(n2c(=O)[nH]c3ccccc32)CC1)c1ccc(F)cc1,"inconclusive: 39.8 µM [inhibitor, single point]",–
Cc1oc(-c2ccc3c(c2)OCCO3)cc1C(=O)NCC(=O)O,–,inactive: -13.7%
COc1cc(CNc2ccc3c(c2)CCC3)cc(OC)c1O,"inconclusive: 14.1 µM [inhibitor, partial curve]",–
COc1cc2oc(-c3ccc(O)cc3)cc(=O)c2c(OC)c1O,"inconclusive: 10 µM [inhibitor, partial curve]",–

Compound,Potency,"activity, negative = inhibition"
C[C@@H](O)C1NC(=O)[C@H](CCCCN)NC(=O)c2cc([N+](=O)[O-])cc(I)c2NCCC[C@@H](C(N)=O)NC1=O (stereo not given in full),"inconclusive: 15.8 µM [inhibitor, partial curve]",–
Cc1cccc2cc(CN(Cc3nnnn3Cc3ccco3)C3CCCC3)c3nnnn3c12,–,inactive: -23.3%
Cc1csc(NC(=O)CSc2nnc(-c3ccoc3C)n2C(C)c2ccccc2)n1 (stereo not given),"inconclusive: 44.7 µM [inhibitor, single point]",–
COc1ccccc1-n1cc(-c2ccc(C)cc2)nc1S(=O)(=O)CC(=O)Nc1ccccc1C(F)(F)F,"inconclusive: 17.8 µM [inhibitor, partial curve]",–
COc1cc2c(cc1OC)C1=C(C#N)CN(C3CCCCC3)CN1CC2,"inconclusive: 22.4 µM [inhibitor, single point]",–
COc1ccc(CC(=O)Nc2ccc3nc(Nc4cccc(Cl)c4)cc(C)c3c2)cc1OC,"inconclusive: 3.16 µM [inhibitor, partial curve]",–
Cc1cccc(Cn2c(SCc3ccc(C(=O)N4CCCCCC4)cc3)nc3ccncc32)c1,–,inactive: -10.8%
O=C(NCCc1nc2ccccc2[nH]1)c1ccc([N+](=O)[O-])cc1,"inconclusive: 22.4 µM [inhibitor, partial curve, poor fit]",–
Cc1cccc(NC(=O)c2cc(S(=O)(=O)N3CCCCC3)c[nH]2)c1C,–,inactive: 1.07%
Cc1[nH]c2ccccc2c1/C=N/NC(=O)CNC(=O)c1ccco1,"inconclusive: 10 µM [inhibitor, partial curve]",–
CC(=O)n1cc([C@@H]2C=C(C(=O)N3CCN(Cc4ccccc4)CC3)O[C@H](OCc3ccc(CO)cc3)C2)c2ccccc21,"inconclusive: 25.1 µM [inhibitor, single point]",–
CCc1cc(C(=O)Cc2nc3ccccc3[nH]2)c(O)cc1O,"inconclusive: 15.8 µM [inhibitor, partial curve]",–
O=C(c1cccc(Cl)c1)n1nc(-c2ccco2)nc1NCc1cccs1,"inconclusive: 15.8 µM [inhibitor, partial curve]",–
CS(=O)(=O)NCCNc1ccc(Cl)cc1[N+](=O)[O-],"inconclusive: 20 µM [inhibitor, partial curve]",–
COc1cc(NC(=O)Cn2c(SCc3ccc(F)cc3)nc3cccnc32)cc(OC)c1,"inconclusive: 2.51 µM [activator, single point]",–
CCN(C(=O)Cn1c(C(=O)OC)cc2oc3ccccc3c21)c1cccc(C)c1,–,inactive: -17.3%
Cn1nccc1C(=O)N1CCc2c([nH]c3ccccc23)C1c1ccc(F)cc1 (stereo not given),"inconclusive: 28.2 µM [inhibitor, partial curve]",–
CC(=C/c1ccccc1)/C=N/n1c(-c2ccco2)n[nH]c1=S,"inconclusive: 10 µM [inhibitor, partial curve]",–
COC(=O)c1cc(NC(=O)c2ccc(OC)cc2)c(=O)oc1C,"inconclusive: 25.1 µM [inhibitor, single point]",–
Cc1cccc2cc(CN(Cc3nnnn3Cc3ccccc3)C3CCCC3)c(=O)[nH]c12,"inconclusive: 39.8 µM [inhibitor, partial curve]",–
COc1c(C(=O)Nc2ccc3[nH]c(=O)[nH]c3c2)cc2ccccc2c1Br,"inconclusive: 2.24 µM [inhibitor, partial curve]",–
COc1ccc(S(=O)(=O)N2CCN(c3ccc(F)cc3)CC2)cc1-c1noc(C)n1,"inconclusive: 0.631 µM [inhibitor, full curve]",–

Compound,Potency,"activity, negative = inhibition"
Cc1ccc(/C=C2/N=C(c3ccccc3)NNC2=O)cc1,"inconclusive: 15.8 µM [inhibitor, partial curve, poor fit]",–
Cc1nc(SCC(=O)c2ccc(F)cc2)c([N+](=O)[O-])[nH]1,"inconclusive: 17.8 µM [inhibitor, partial curve]",–
Cn1c(=O)c2c(n3c4ccccc4nc13)NC(=O)CC2c1ccccc1F (stereo not given),–,inactive: -7.12%
CC1CCc2c(sc3nnn(Cc4ccc(F)cc4)c(=O)c23)C1 (stereo not given),"inconclusive: 20 µM [inhibitor, single point]",–
COc1ccc(Nc2nc(Cl)c(C=O)s2)cc1,"inconclusive: 22.4 µM [inhibitor, single point]",–
COc1cc(NC(=O)COC(=O)/C=C/c2ccc(OC)c(OC)c2)cc(OC)c1,"inconclusive: 22.4 µM [inhibitor, partial curve]",–
Cc1ccccc1OCCCC(=O)Nc1ccc2c(c1)OCO2,"inconclusive: 28.2 µM [inhibitor, partial curve]",–
O=C1/C(=C/c2ccccc2)NC(=S)N1C(c1ccccc1)c1ccccc1,"inconclusive: 20 µM [inhibitor, partial curve]",–
CCCCc1c(O)c2ccccc2[nH]c1=O,–,inactive: -2.17%
Cc1noc(NS(=O)(=O)c2ccc(N/C=C/C(=O)c3ccccc3)cc2)c1C,"inconclusive: 15.8 µM [inhibitor, partial curve]",–
CCOc1ccc(/C=C/C(=O)Nc2ccc3[nH]c(=O)[nH]c3c2)cc1,"inconclusive: 1 µM [inhibitor, full curve]",–
Cc1[nH]c(=S)c(C#N)c(-c2ccccc2)c1C(=O)Nc1ccccc1,"inconclusive: 11.2 µM [inhibitor, partial curve, poor fit]",–
O=C(N/N=C/c1ccc(O)cc1)c1csc2ccccc12,"inconclusive: 6.31 µM [inhibitor, partial curve]",–
C=CS(=O)(=O)c1sc(Cl)c(N2CCOCC2)c1[N+](=O)[O-],active: 3.55 µM,–
CCOC(=O)c1sc(N2C(=O)c3oc4cc(C)c(C)cc4c(=O)c3C2c2cccc(O)c2)nc1C (stereo not given),"inconclusive: 11.2 µM [inhibitor, partial curve, poor fit]",–
CCOC(=O)c1sc2ccccc2c1S(=O)(=O)Nc1ccc(N(C)C)cc1,"inconclusive: 14.1 µM [inhibitor, partial curve, poor fit]",–
Cc1nnc(SCCCN2C(=O)c3ccccc3C2=O)o1,–,inactive: -6.56%
Cc1cc(Cl)c(OCCCSc2nc(C)cc(=O)[nH]2)c(Br)c1,"inconclusive: 6.31 µM [inhibitor, full curve, poor fit]",–
COC(=O)[C@@]1(Cc2ccc(F)cc2)[C@H]2c3cc(C(=O)N4CCCC4)n(CCSCCO)c3C[C@H]2CN1C(=O)c1ccccc1,"inconclusive: 39.8 µM [inhibitor, single point]",–
COC(=O)c1ccc(NC(=O)CC2C(=O)N(c3ccc(Cl)cc3)C(=O)N2Cc2cccs2)cc1 (stereo not given),–,inactive: -5.13%
COc1ccc(NC(=O)CSc2ncc(-c3ccc(Cl)cc3)[nH]2)cc1OC,"inconclusive: 7.08 µM [inhibitor, full curve]",–
